Results from PubChem BioAssay AID624296 (National Center for Advancing Translational Sciences (NCATS), 2012).
The whole screen tested about 350,000 compounds, of which about 9,900 (2.8%) were called active. This list was built around the results that the source calls inconclusive (neither active nor inactive); the mix of calls is not that of the screen. Calls come from the whole dose curve; as a rule, active = well fitted activation curve with a large enough effect; inconclusive = small, poorly fitted or top-dose-only effect; inactive = no such curve, though single readings can be large or run the other way. No potency is given beside an inconclusive call; the fits are too rough.

assay: A quantitative high throughput screen for small molecules that induce DNA re-replication in MCF 10a normal breast cells.; note: nearly all actives have a fitted effect of over 50% in size; for activity, positive = re-replication: % of control where 0% means no effect; settings: MCF 10A DNA re-replication, Hoechst nuclear intensity, 48 h; activity, positive = re-replication: at 46.1 µM (top of the series)
Potency is the fitted concentration of half-maximal effect; tags give direction and shape of the fitted curve.

Row | Compound | Potency | activity, positive = re-replication
1 | CN(C)CCn1cnc2c(c1=N)C(c1ccccc1)c1ccc3ccccc3c1O2 (configuration not stated) | inconclusive [activator, full curve, poor fit] | 
2 | CCOc1ncccc1C(=O)NCCc1ccc(Cl)cc1 |  | inactive: 0.807%
3 | COc1cccc(NCc2cc(=O)oc3cc(C)c(C(C)C)cc23)c1 |  | inactive: -4.47%
4 | O=C(Nc1ccc(Cl)c(C(F)(F)F)c1)c1ccco1 | inconclusive [activator, partial curve, poor fit] | 
5 | CC[C@]1(c2ccccc2)C(=O)N(C(=O)OC)N1C(=O)OC |  | inactive: -5.07%
6 | Cc1cc(NC(=S)NC(=O)c2ccccc2)ccc1-c1cc2ccccc2oc1=O | inconclusive [activator, partial curve] | 
7 | N#C/C(=C(/O)COc1ccccc1)c1nc2ccccc2s1 | inconclusive [activator, single point] | 
8 | Cc1ccc(S(=O)(=O)N2CCC(C(=O)Nc3ccc(C(C)C)cc3)CC2)cc1 | inconclusive [activator, single point] | 
9 | COc1ccc(-c2nc(CN3CCN(c4cc(C)nc(C)c4)CC3)c(C)o2)c2ccccc12 | active: 16.4 µM | 
10 | Cc1ccc(/C=N/NC(=O)c2nnn(-c3nonc3N)c2C(C)C)s1 |  | inactive: 0.448%
11 | Cc1cc(S(=O)(=O)Nc2ccc(C(=O)NCCCN3CCCC3=O)cc2)ccc1F |  | inactive: 0.596%
12 | COc1ccc(CNC(=O)C[C@H]2C[C@H](C(=O)N(C(C)C)C(C)C)[C@@]3(C)c4[nH]c5cc(-c6ccco6)ccc5c4CCN3C2=O)cc1OC | inconclusive [activator, single point] | 
13 | O=C(Oc1cccc2cccnc12)c1ccco1 | inconclusive [activator, single point] | 
14 | COc1cc(NC(=O)c2[nH]cnc2C(N)=O)cc(C(=O)Nc2cccc(C(F)(F)F)c2)c1 | active: 7.31 µM | 
15 | Cc1ccc(NS(=O)(=O)c2cc(C(=O)Nc3cccc([N+](=O)[O-])c3)ccc2C)cc1 | inconclusive [activator, single point] | 
16 | Cc1sc2ncnc(Sc3ccccc3C(=O)Nc3ccc(Br)cc3)c2c1C |  | inactive: 3.77%
17 | Nc1nonc1-n1nnc(C(=O)N/N=C/c2ccccc2)c1CSc1ccc(Cl)cc1 | inconclusive [activator, partial curve, poor fit] | 
18 | S=C(Nc1cccc(Cl)c1)Nc1cccc2cnccc12 | inconclusive [activator, single point] | 
19 | COc1ccc(Nc2n[nH]c(C)c2[N+](=O)[O-])cc1 |  | inactive: -3.13%
20 | O=C(/C=C/c1ccccc1)/C=C/c1ccccc1 | active: 3.26 µM | 
21 | NCCCn1c(C(=O)c2cc(Cl)c(N)c(Cl)c2)c2ccc(C(F)(F)F)cc2[n+]1[O-] |  | inactive: 0.499%
22 | COc1ccc(C(=O)Nc2nc(-c3ccc([N+](=O)[O-])cc3)c(-c3ccc(OC)cc3)s2)cc1 | inconclusive [activator, single point] | 
23 | CCOc1cc(CNc2ccc(N3CCCCC3)cc2)cc(Br)c1OCC(=O)NC(C)(C)C | inconclusive [activator, partial curve, poor fit] | 
24 | COc1cccc(/C=N/Nc2snc(SC)c2C#N)c1 | inconclusive [activator, single point] | 

Row | Compound | Potency | activity, positive = re-replication
25 | Cc1onc(-c2ccccc2)c1C(=O)Nc1ncc([N+](=O)[O-])s1 | inconclusive [activator, full curve, poor fit] | 
26 | Cc1cccc(-c2nnc3sc(-c4ccccc4)nn23)c1 |  | inactive: -3.92%
27 | Nc1nnc(CC(=O)N/N=C/c2ccc(-c3cccc(C(=O)O)c3)o2)s1 | inconclusive [activator, partial curve, poor fit] | 
28 | CN1CCN(C(=O)c2cc3nc(-c4ccccc4)cc(C(F)(F)F)n3n2)CC1 |  | inactive: -1.28%
29 | COc1cc(C(=O)NCc2ccccc2)ccc1OC(F)F |  | inactive: 1.31%
30 | Cc1noc(C)c1COc1cccc(C(=O)Nc2ccccc2N2CCOCC2)c1 |  | inactive: 10.7%
31 | Cc1cc(C)c2cc(C=O)c(Cl)nc2c1 | inconclusive [activator, partial curve] | 
32 | COc1ccc(OC)c(C(c2nnnn2C2CCCC2)N2CCN(c3ccccc3)CC2)c1 (configuration not stated) |  | inactive: 2.05%
33 | COc1ccc(CCNC(=O)c2ccccc2NC(=O)C2=C(C)OCCS2)c(OC)c1 |  | inactive: 1.89%
34 | Cc1cc(C(=O)OCC(=O)N2c3ccccc3NC(=O)C2(C)C)c(C)n1-c1ccccc1 | inconclusive [activator, single point] | 
35 | CC(Sc1nnnn1-c1ccccc1)C(=O)Nc1ccc(Cl)cn1 (configuration not stated) | inconclusive [activator, partial curve, poor fit] | 
36 | COc1ccc(S(=O)(=O)N(Cc2ccccc2)c2ccccc2C(=O)N2CCOCC2)cc1 | inconclusive [activator, full curve, poor fit] | 
37 | COC12NC(=O)N(C)C1(OC)C(=O)N(C)C(=O)N2C (configuration not stated) | inconclusive [activator, single point] | 
38 | CC(O)(P(=O)(O)O)P(=O)(O)O | inactive | 
39 | c1ccc(-c2nnc(-c3ccco3)n2-c2ccccc2)cc1 | inconclusive [activator, single point] | 
40 | Cc1ccc(SCC(=O)Nc2ccccc2C(=O)O)cc1 |  | inactive: 18.9%
41 | O=C(C1=C(O)C(=O)N(CCN2CCOCC2)C1c1cccc(O)c1)c1cc2ccccc2o1 (configuration not stated) | inconclusive [activator, single point] | 
42 | Cc1ccc(S(=O)(=O)Nc2ccc3c(c2)n(C)c(=O)n3C)c(C)c1 | inconclusive [activator, single point] | 
43 | CCc1cccc2c(C(=O)COC(=O)c3ccc([N+](=O)[O-])s3)c[nH]c12 |  | inactive: 18.4%
44 | Cc1ccc(C)c2nc3sc(C(=O)N4CCOCC4)c(N)c3cc12 | inconclusive [activator, single point] | 
45 | S=C1NC[C@H](CC2CCCCC2)N1CCc1cccc2ccccc12 | inconclusive [activator, single point] | 
46 | O=C(c1ccc(Br)cc1)c1cc2ccc(O)cc2oc1=O | inconclusive [activator, single point] | 
47 | COc1ccc(C)cc1NC(=S)N1CC(C)OC(C)C1 (configuration not stated) |  | inactive: -13.7%
48 | COc1ccc(-c2noc(CCC(=O)N3CCN(c4ccccc4Cl)CC3)n2)cc1 | inconclusive [activator, single point] | 

Row | Compound | Potency | activity, positive = re-replication
49 | CC(C)(C)n1nnnc1C(c1cccs1)N1CCCC2(CCCCC2)C1 (configuration not stated) | inconclusive [activator, partial curve, poor fit] | 
50 | CCOC(=O)C1=C(COc2ccc(C)cc2)NC(=O)NC1c1cc(C)ccc1C (configuration not stated) | inconclusive [activator, single point] | 
51 | Cc1cc(-c2ccccc2)nc(=O)[nH]1 |  | inactive: 0.266%
52 | O=C(COc1ccccc1)NCC(=O)Nc1ccncc1 |  | inactive: 8.27%
53 | COc1ccc(N2CCN(C(=O)CN3CCN(C(c4ccccc4)c4ccccc4)CC3)CC2)cc1 | inconclusive [activator, single point] | 
54 | CC(NC(=O)CCNS(=O)(=O)c1cccc2nonc12)c1ccccc1 (configuration not stated) |  | inactive: -2.74%
55 | CN1CC(=O)N(CC(=O)Nc2cccc3ccccc23)C1=O |  | inactive: 0.152%
56 | COc1ccc(C(=O)Nc2ccccc2C(=O)Nc2ccccn2)cc1 | inconclusive [activator, partial curve, poor fit] | 
57 | CCc1ccccc1NC(=S)NNC(=O)c1ccccc1Cl |  | inactive: 11.7%
58 | CC(C)(C)S(=O)N1Cc2cc(CO)cc(CCO)c2[C@H]1CCO (some centres not stated) |  | inactive: -2.21%
59 | COCCn1c(N)c(S(=O)(=O)c2cccs2)c2nc3ccccc3nc21 | active: 23.1 µM | 
60 | CN(C)c1cccc(C(=O)Nc2cc(C(F)(F)F)ccc2-n2cnc3ccccc32)c1 |  | inactive: 1.86%
61 | Cc1ccc(CN(N=Nc2nonc2N)c2nonc2N)c(C)c1 | inconclusive [activator, single point] | 
62 | Cc1cccn2c(=O)c3cc(C(N)=S)c(=N)n(CCCN4CCOCC4)c3nc12 | inconclusive [activator, full curve, poor fit] | 
63 | CC(C)(C)NC(=O)Cn1c(SCC(N)=O)nc2ccccc21 | inconclusive [activator, single point] | 
64 | CCOC(=O)/C=C/C(=O)OCC(=O)Nc1ccc(C)cc1 | inconclusive [activator, single point] | 
65 | COc1cc2c(cc1OC)-c1cc(Nc3ccccc3C)nc(=O)n1CC2 |  | inactive: 1.92%
66 | CCOC(=O)Nc1cc2c(c(N)n1)N=C(c1ccccc1)CN2 | inconclusive [activator, full curve, poor fit] | 
67 | COc1ccc2c(c1)OC(C)(C)C(c1ccccc1)C2c1ccc(OCCN2CCCC2)cc1 (configuration not stated) | inconclusive [activator, single point] | 
68 | Cc1ccccc1CN1CCC(N2CCC(C(=O)NCC3CCCO3)CC2)CC1 (configuration not stated) | inconclusive [activator, partial curve, poor fit] | 
69 | O=C(C1CCC(=O)N1Cc1ccccc1Cl)N1CCN(c2ccc(F)cc2)CC1 (configuration not stated) | inconclusive [activator, partial curve, poor fit] | 
70 | Cc1cc(C(=O)N2CCCC(C(=O)c3ccc(Cl)cc3C)C2)no1 (configuration not stated) | inconclusive [activator, single point] | 
71 | Cc1ccc(-c2nc(C#N)c(NCc3cccc4c3OCO4)o2)cc1 | active: 16.4 µM | 
72 | O=[N+]([O-])c1cccc(/C=N\N2CCN(Cc3ccccc3Cl)CC2)c1 | inconclusive [activator, single point] | 
